# Measured values from the supplement of paper PMC8728848.
# The full list was thinned out, with the strongest signals kept by preference.
# Experiments:
# Assay in all cases: glycan array binding signal (z-score within array); higher = stronger binding
# Settings in all cases: glycan notation: IUPAC condensed, linker removed
# [1] = target: GlcNAc(a1-4)Gal(b1-4)GalNAc
# Summary of the method: (§1)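 From the Consortium for Functional Glycomics database, 3228 arrays were curated, keeping only those whose protein sequence was available. Binding is given as a within-array Z-score averaged across arrays sharing a protein sequence and across linkers. Negative Z-scores can be read as non-binding.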
# [2] = target: GlcNAc(b1-2)Man(a1-3)[GlcNAc(b1-4)][GlcNAc(b1-2)Man(a1-6)]Man(b1-4)GlcNAc(b1-4)GlcNAc
# Summary of the method: as §1
# [3] = target: GlcNAc(b1-2)[GlcNAc(b1-4)]Man(a1-3)[GlcNAc(b1-4)][GlcNAc(b1-2)Man(a1-6)]Man(b1-4)GlcNAc(b1-4)GlcNAc
# Summary of the method: as §1
# GlcNAc(b1-3)Gal = target: GlcNAc(b1-3)Gal
# Summary of the method: as §1
# [4] = target: GlcNAc(b1-3)Gal(b1-4)GlcNAc
# Summary of the method: as §1
# [5] = target: GlcNAc(b1-3)Gal(b1-4)GlcNAc(b1-2)[GlcNAc(b1-3)Gal(b1-4)GlcNAc(b1-6)]Man(a1-6)[GlcNAc(b1-3)Gal(b1-4)GlcNAc(b1-2)Man(a1-3)]Man(b1-4)GlcNAc(b1-4)GlcNAc
# Summary of the method: as §1
# [6] = target: GlcNAc(b1-3)Gal(b1-4)GlcNAc(b1-3)Gal(b1-4)GlcNAc
# Summary of the method: as §1
# [7] = target: GlcNAc(b1-3)Gal(b1-4)GlcNAc(b1-3)Gal(b1-4)GlcNAc(b1-2)[GlcNAc(b1-3)Gal(b1-4)GlcNAc(b1-3)Gal(b1-4)GlcNAc(b1-6)]Man(a1-6)[GlcNAc(b1-3)Gal(b1-4)GlcNAc(b1-3)Gal(b1-4)GlcNAc(b1-2)Man(a1-3)]Man(b1-4)GlcNAc(b1-4)[Fuc(a1-6)]GlcNAc
# Summary of the method: as §1
# [8] = target: GlcNAc(b1-3)[GlcNAc(b1-6)]Gal(b1-4)GlcNAc
# Summary of the method: as §1
# Man(a1-2)Man(a1-3)Man = target: Man(a1-2)Man(a1-3)Man
# Summary of the method: as §1
# [9] = target: Man(a1-2)Man(a1-3)[Man(a1-2)Man(a1-6)]Man(a1-6)[Man(a1-2)Man(a1-2)Man(a1-3)]Man(b1-4)GlcNAc(b1-4)GlcNAc
# Summary of the method: as §1
# [10] = target: Man(a1-3)[Man(a1-6)]Man(b1-4)GlcNAc(b1-4)[Fuc(a1-6)]GlcNAc
# Summary of the method: as §1
# [11] = target: Neu5Ac(a2-3)Gal(b1-3)GlcNAc(b1-2)Man(a1-3)[GlcNAc(b1-4)][Neu5Ac(a2-3)Gal(b1-3)GlcNAc(b1-2)Man(a1-6)]Man(b1-4)GlcNAc(b1-4)GlcNAc
# Summary of the method: as §1
# [12] = target: Neu5Ac(a2-3)Gal(b1-3)GlcNAc(b1-3)Gal(b1-4)GlcNAc
# Summary of the method: as §1
# [13] = target: Neu5Ac(a2-3)Gal(b1-3)GlcNAc(b1-3)GalNAc
# Summary of the method: as §1
# [14] = target: Neu5Ac(a2-3)Gal(b1-3)GlcNAc(b1-6)GalNAc
# Summary of the method: as §1
# [15] = target: Neu5Ac(a2-3)Gal(b1-4)GlcNAc(b1-2)Man(a1-3)[Neu5Ac(a2-3)Gal(b1-4)GlcNAc(b1-2)Man(a1-6)]Man(b1-4)GlcNAc(b1-4)[Fuc(a1-6)]GlcNAc
# Summary of the method: as §1
# [16] = target: Neu5Ac(a2-3)Gal(b1-4)GlcNAc(b1-3)Gal(b1-3)GlcNAc
# Summary of the method: as §1
# [17] = target: Neu5Ac(a2-3)Gal(b1-4)GlcNAc(b1-3)Gal(b1-4)GlcNAc(b1-6)[Gal(b1-3)]GalNAc
# Summary of the method: as §1
# [18] = target: Neu5Ac(a2-3)Gal(b1-4)GlcNAc(b1-3)Gal(b1-4)[Fuc(a1-3)]GlcNAc
# Summary of the method: as §1
# [19] = target: Neu5Ac(a2-3)Gal6S(b1-4)GlcNAc
# Summary of the method: as §1
# [20] = target: Neu5Ac(a2-6)Gal(b1-4)GlcNAc
# Summary of the method: as §1
# [21] = target: Neu5Ac(a2-6)Gal(b1-4)GlcNAc(b1-2)[Neu5Ac(a2-6)Gal(b1-4)GlcNAc(b1-4)]Man(a1-3)[GlcNAc(b1-4)][Neu5Ac(a2-6)Gal(b1-4)GlcNAc(b1-4)Man(a1-6)]Man(b1-4)GlcNAc(b1-4)GlcNAc
# Summary of the method: as §1
# [22] = target: Neu5Gc(a2-3)Gal(b1-3)GlcNAc
# Summary of the method: as §1
# [23] = target: Neu5Gc(a2-3)Gal(b1-3)[Fuc(a1-4)]GlcNAc
# Summary of the method: as §1
# [24] = target: Neu5Gc(a2-3)Gal(b1-4)GlcNAc(b1-3)Gal(b1-4)GlcNAc(b1-2)Man(a1-3)[Neu5Gc(a2-3)Gal(b1-4)GlcNAc(b1-3)Gal(b1-4)GlcNAc(b1-2)Man(a1-6)]Man(b1-4)GlcNAc(b1-4)GlcNAc
# Summary of the method: as §1
binder,measurement,setting,value
Langerin (Homo sapiens) (protein) LDYPRFMGTISDVKTNVQLLKGRVDNISTLDSEIKKNSDGMEAAGVQIQMVNESLGYVRSQFLKLKTSVEKANAQIQILTRSWEEVSTLNAQIPELKSDLEKASALNTKIRALQGSLENMSKLLKRQNDILQVVSQGWKYFKGNFYYFSLIPKTWYSAEQFCVSRNSHLTSVTSESEQEFLYKTAGGLIYWIGLTKAGMEGDWSWVDDTPFNKVQSARFWIPGEPNNAGNNEHCGNIKAPSLQAWNDAPCDKTFLFICKRPYVPSEPV[in this place human IgG1 Fc],glycan array binding signal (z-score),[1],-0.248
same,glycan array binding signal (z-score),[2],1.15
same,glycan array binding signal (z-score),[3],1.55
same,glycan array binding signal (z-score),GlcNAc(b1-3)Gal,2.38
same,glycan array binding signal (z-score),[4],1.36
same,glycan array binding signal (z-score),[5],2
same,glycan array binding signal (z-score),[6],2.03
same,glycan array binding signal (z-score),[7],2.39
same,glycan array binding signal (z-score),[8],1.44
same,glycan array binding signal (z-score),Man(a1-2)Man(a1-3)Man,1.64
same,glycan array binding signal (z-score),[9],2.11
same,glycan array binding signal (z-score),[10],1.77
same,glycan array binding signal (z-score),[11],0.177
same,glycan array binding signal (z-score),[12],-0.965
same,glycan array binding signal (z-score),[13],-0.345
same,glycan array binding signal (z-score),[14],-0.95
same,glycan array binding signal (z-score),[15],-0.976
same,glycan array binding signal (z-score),[16],-1.03
same,glycan array binding signal (z-score),[17],-0.412
same,glycan array binding signal (z-score),[18],-0.997
same,glycan array binding signal (z-score),[19],2.2
same,glycan array binding signal (z-score),[20],-0.544
same,glycan array binding signal (z-score),[21],-0.343
same,glycan array binding signal (z-score),[22],0.6
same,glycan array binding signal (z-score),[23],-0.497
same,glycan array binding signal (z-score),[24],-0.443
